# Data: PMC9911399, “Two distinct binding modes provide the RNA-binding protein RbFox with extraordinary sequence specificity”
# Positions count from the first letter of the chain named. The list shows a part of the results.
# T1: RBFOX1 RRM (Homo sapiens, UniProt Q9NWB1 109-208)
# T1 sequence: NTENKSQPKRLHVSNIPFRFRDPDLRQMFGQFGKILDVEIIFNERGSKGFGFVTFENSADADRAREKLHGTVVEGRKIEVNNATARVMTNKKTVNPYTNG
# B1: GCAGAGA (DNA:RNA)
# RNA: GGGAGACCGGAAUUCAGAUUGUCCGCAGAGAUUAAAUCCCGUCGUAGCCACCA
# DNA 1: CAATCTGAATTCCGGTCTCCC
# DNA 2: TGGTGGCTACGACGGGATT
# B2: GGCCCUA (DNA:RNA)
# RNA: B1 RNA with C26G, A27C, G28C, A29C, G30U
# DNA 1: CAATCTGAATTCCGGTCTCCC
# DNA 2: TGGTGGCTACGACGGGATT
# B3: ACCCCCG (DNA:RNA)
# RNA: B1 RNA with G25A, A27C, G28C, A29C, G30C, A31G
# DNA 1: CAATCTGAATTCCGGTCTCCC
# DNA 2: TGGTGGCTACGACGGGATT
# B4: CAGACUC (DNA:RNA)
# RNA: GGGAGACCGGAAUUCAGAUUGUCCCAGACUCUUAAAUCCCGUCGUAGCCACCA
# DNA 1: CAATCTGAATTCCGGTCTCCC
# DNA 2: TGGTGGCTACGACGGGATT
# B5: CAUGAGG (DNA:RNA)
# RNA: B1 RNA with G25C, C26A, A27U, A31G
# DNA 1: CAATCTGAATTCCGGTCTCCC
# DNA 2: TGGTGGCTACGACGGGATT
# B6: CGCCCAA (DNA:RNA)
# RNA: B4 RNA with A26G, G27C, A28C, U30A, C31A
# DNA 1: CAATCTGAATTCCGGTCTCCC
# DNA 2: TGGTGGCTACGACGGGATT
# B7: AUGAAGA (DNA:RNA)
# RNA: B1 RNA with G25A, C26U, A27G, G28A
# DNA 1: CAATCTGAATTCCGGTCTCCC
# DNA 2: TGGTGGCTACGACGGGATT
# B8: GAACCGA (DNA:RNA)
# RNA: B1 RNA with C26A, G28C, A29C
# DNA 1: CAATCTGAATTCCGGTCTCCC
# DNA 2: TGGTGGCTACGACGGGATT
# B9: CUGUUAU (DNA:RNA)
# RNA: B4 RNA with A26U, A28U, C29U, U30A, C31U
# DNA 1: CAATCTGAATTCCGGTCTCCC
# DNA 2: TGGTGGCTACGACGGGATT
# B10: GUGCAAA (DNA:RNA)
# RNA: B1 RNA with C26U, A27G, G28C, G30A
# DNA 1: CAATCTGAATTCCGGTCTCCC
# DNA 2: TGGTGGCTACGACGGGATT
# B11: GUCCUGU (DNA:RNA)
# RNA: B1 RNA with C26U, A27C, G28C, A29U, A31U
# DNA 1: CAATCTGAATTCCGGTCTCCC
# DNA 2: TGGTGGCTACGACGGGATT
# B12: CUGGACG (DNA:RNA)
# RNA: B4 RNA with A26U, A28G, C29A, U30C, C31G
# DNA 1: CAATCTGAATTCCGGTCTCCC
# DNA 2: TGGTGGCTACGACGGGATT
# B13: GGUGCUG (DNA:RNA)
# RNA: B4 RNA with C25G, A26G, G27U, A28G, C31G
# DNA 1: CAATCTGAATTCCGGTCTCCC
# DNA 2: TGGTGGCTACGACGGGATT
# B14: UAGAGGU (DNA:RNA)
# RNA: B4 RNA with C25U, C29G, U30G, C31U
# DNA 1: CAATCTGAATTCCGGTCTCCC
# DNA 2: TGGTGGCTACGACGGGATT
# B15: CCGCGAU (DNA:RNA)
# RNA: B4 RNA with A26C, A28C, C29G, U30A, C31U
# DNA 1: CAATCTGAATTCCGGTCTCCC
# DNA 2: TGGTGGCTACGACGGGATT
# B16: UUUUCUA (DNA:RNA)
# RNA: B4 RNA with C25U, A26U, G27U, A28U, C31A
# DNA 1: CAATCTGAATTCCGGTCTCCC
# DNA 2: TGGTGGCTACGACGGGATT
# B17: GGUGUCG (DNA:RNA)
# RNA: B1 RNA with C26G, A27U, A29U, G30C, A31G
# DNA 1: CAATCTGAATTCCGGTCTCCC
# DNA 2: TGGTGGCTACGACGGGATT
# B18: GGUAUGG (DNA:RNA)
# RNA: B1 RNA with C26G, A27U, G28A, A29U, A31G
# DNA 1: CAATCTGAATTCCGGTCTCCC
# DNA 2: TGGTGGCTACGACGGGATT
# B19: UGGAUAA (DNA:RNA)
# RNA: B4 RNA with C25U, A26G, C29U, U30A, C31A
# DNA 1: CAATCTGAATTCCGGTCTCCC
# DNA 2: TGGTGGCTACGACGGGATT
# B20: UUGCUAA (DNA:RNA)
# RNA: B4 RNA with C25U, A26U, A28C, C29U, U30A, C31A
# DNA 1: CAATCTGAATTCCGGTCTCCC
# DNA 2: TGGTGGCTACGACGGGATT
# Target: T1, RBFOX1 RRM
# Assay: EMSA; HiTS-Eq, 1 nM pool, 10 min; buffer printed only for the single-RNA assays: 10 mM Tris pH 7.5, 150 mM NaCl, 3.4 mM EDTA, 0.001% NP-40, 30 C
# Details: tags: His6 N-terminal (pET28a); label: 5' 32P
# How it was run: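 Purified RbFox RRM, wild type or mutant, was incubated for 10 min in 50 µL with 1 nM of a 5′-radiolabelled RNA pool carrying 7 randomized nucleotides, whose flanks were annealed to DNA oligonucleotides, over a series of increasing protein concentrations. Unbound RNA was resolved on 8% native PAGE, cut out, reverse-transcribed, barcoded by PCR and sequenced on an Illumina HiSeq 2500. Relative association constants were derived from changes in read counts for each RNA species versus the control reaction and normalised to the cognate motif.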
row,Binder,binding signal
1,B1,0.0131 KA relative to UGCAUGU
2,B2,0.013 KA relative to UGCAUGU
3,B3,0.00291 KA relative to UGCAUGU
4,B4,0.00715 KA relative to UGCAUGU
5,B5,0.00885 KA relative to UGCAUGU
6,B6,0.00259 KA relative to UGCAUGU
7,B7,0.00985 KA relative to UGCAUGU
8,B8,0.00508 KA relative to UGCAUGU
9,B9,0.0116 KA relative to UGCAUGU
10,B10,0.0108 KA relative to UGCAUGU
11,B11,0.0155 KA relative to UGCAUGU
12,B12,0.0124 KA relative to UGCAUGU
13,B13,0.0153 KA relative to UGCAUGU
14,B14,0.00935 KA relative to UGCAUGU
15,B15,0.006 KA relative to UGCAUGU
16,B16,0.0102 KA relative to UGCAUGU
17,B17,0.0153 KA relative to UGCAUGU
18,B18,0.00925 KA relative to UGCAUGU
19,B19,0.0172 KA relative to UGCAUGU
20,B20,0.00861 KA relative to UGCAUGU
